# Results from article PMC4336329 (PLoS ONE, 2015).
# In all, about 310,000 compounds went through this assay and about 14,000 (4.5%) showed an effect of 50% or more. Effects have a minus sign here. This is one part of the list.
# Biological target: human ether-à-go-go-related gene (hERG) potassium channel (human, UniProt Q12809)
# Experiment: primary screen, population patch clamp on CHO cells stably expressing hERG
# 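Also: peak tail current of the secondary pulse compared with the same well before compound.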
# human ether-à-go-go-related gene (hERG) potassium channel, sequence (Q12809 whole entry, looked up): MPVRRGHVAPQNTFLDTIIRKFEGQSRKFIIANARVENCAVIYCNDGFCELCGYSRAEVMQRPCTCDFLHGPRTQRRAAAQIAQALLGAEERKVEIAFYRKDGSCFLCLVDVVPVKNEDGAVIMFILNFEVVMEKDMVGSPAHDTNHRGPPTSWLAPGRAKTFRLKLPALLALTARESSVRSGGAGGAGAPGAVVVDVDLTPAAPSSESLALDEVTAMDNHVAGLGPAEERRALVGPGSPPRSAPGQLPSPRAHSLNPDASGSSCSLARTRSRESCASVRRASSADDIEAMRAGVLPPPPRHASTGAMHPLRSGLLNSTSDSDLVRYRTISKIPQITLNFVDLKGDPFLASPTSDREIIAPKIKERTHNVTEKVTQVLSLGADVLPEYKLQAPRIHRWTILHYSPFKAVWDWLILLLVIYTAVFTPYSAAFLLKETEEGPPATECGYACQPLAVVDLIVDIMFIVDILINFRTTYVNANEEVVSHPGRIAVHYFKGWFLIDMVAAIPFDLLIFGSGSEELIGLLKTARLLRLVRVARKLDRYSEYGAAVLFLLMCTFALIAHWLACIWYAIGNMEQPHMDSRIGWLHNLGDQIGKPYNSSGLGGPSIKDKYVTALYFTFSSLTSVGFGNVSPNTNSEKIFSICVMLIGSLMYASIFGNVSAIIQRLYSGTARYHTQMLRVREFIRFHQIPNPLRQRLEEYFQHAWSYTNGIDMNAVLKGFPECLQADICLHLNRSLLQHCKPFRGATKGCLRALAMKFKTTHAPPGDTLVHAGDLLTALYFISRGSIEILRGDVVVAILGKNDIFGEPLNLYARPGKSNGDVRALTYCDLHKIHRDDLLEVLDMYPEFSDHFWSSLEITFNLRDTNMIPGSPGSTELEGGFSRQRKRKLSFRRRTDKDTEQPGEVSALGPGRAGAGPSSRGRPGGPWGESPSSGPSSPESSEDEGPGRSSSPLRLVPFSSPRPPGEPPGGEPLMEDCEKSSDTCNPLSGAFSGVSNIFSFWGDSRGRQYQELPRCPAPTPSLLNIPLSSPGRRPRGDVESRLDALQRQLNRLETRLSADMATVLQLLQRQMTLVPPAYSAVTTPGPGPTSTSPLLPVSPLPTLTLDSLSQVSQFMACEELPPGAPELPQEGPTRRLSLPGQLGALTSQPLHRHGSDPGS
row,Compound,"hERG current change (%, negative = inhibition) at 10uM"
1,CCOc1ccccc1NC1=C(Cl)C(=O)N(c2ccc(OC)cc2)C1=O,-10.4%
2,Oc1ccc(C=NC2CCCCC2)c(O)c1,13.3%
3,CC(C)=CCC1=C(OCC(=O)O)C(=O)c2ccccc2C1=O,5.27%
4,Cc1ccc(CNc2ncnc3cc(Cl)ccc23)o1,-5.19%
5,COc1cccc(NC(=O)COc2coc(CN3CCN(c4ccccc4)CC3)cc2=O)c1,3.45%
6,CS(=O)(=O)N(CC(=O)Nc1ccc2c(c1)OCO2)c1ccccc1,2.33%
7,O=C(Nc1cccc(Cl)c1)NC1CCS(=O)(=O)C1 (stereo not drawn),-0.236%
8,COc1ccccc1CN(Cc1nc2ccccc2c(=O)[nH]1)S(=O)(=O)c1ccc(C)cc1,4.38%
9,O=C(O)CSc1nccc2ccccc12,14.7%
10,CC(Sc1nc(N)cc(=O)[nH]1)C(=O)NC1CCCCC1 (stereo not drawn),-4%
11,N#CC1=C(N)C(C#N)(C#N)[C@H](c2ccoc2)[C@H]2CN(Cc3ccccc3)CC=C12,-32.4%
12,Brc1cc(Br)cc(CN2CCSCC2)c1,31.2%
13,O=C(COC(=O)c1cccc(C(=O)OCC(=O)NCc2ccc(F)cc2)n1)NCc1ccc(F)cc1,-15.5%
14,O=c1oc2c3c4c(cc2c(C(F)(F)F)c1CCN1CCOCC1)CCCN4CCC3,-5%
15,CC1=CC(C)(C)n2c(O)c(N=NC(N)=S)c3c(C)c(C)cc1c32,12.1%
16,CCOc1ccc(C(=O)OC2CC3CCC(C2)N3C)cc1.Cl (stereo not drawn),-30%
17,C=CCNC(=O)Nc1ccc(OCC)cc1,-2.74%
18,CCN(C(=O)CN1C(=O)c2ccc([N+](=O)[O-])cc2C1=O)C1CCS(=O)(=O)C1 (stereo not drawn),13.8%
19,CN(c1ccccc1)S(=O)(=O)c1ccc(C(=O)Nc2nnc(-c3ccco3)o2)cc1,6.87%
20,O=C(CC1NCCc2ccccc21)Nc1ccc(Cl)cc1 (stereo not drawn),-46.1%
21,CCOc1ccc(/C=N/OCC(=O)NC(c2ccccc2)c2ccccc2)cc1,-33.4%
22,Cc1cc(C)nc(Nc2ccccc2Br)n1,12.1%

row,Compound,"hERG current change (%, negative = inhibition) at 10uM"
1,Cc1cccc(C(CC(=O)O)NC(=O)C(F)(F)F)c1 (stereo not drawn),12.2%
2,Cn1c(=O)[nH]c(=O)c2c1nc(SCCN1CCOCC1)n2Cc1ccccc1,-54.4%
3,COc1cccc(N2C(=NC(=O)COc3ccccc3)SC3CS(=O)(=O)CC32)c1 (stereo not drawn),9.3%
4,COc1ccc(CNC(=O)CCn2c(=O)[nH]c3ccccc3c2=O)cc1,5.79%
5,Cc1ccccc1NC(=O)COc1ccc2oc(=O)cc(C)c2c1,-5.56%
6,O=C(NNC(=S)Nc1ccccc1Cl)c1ccccc1Cl,18.8%
7,Cc1c(O)ccc2c(-c3ccccc3)cc(=O)oc12,2.02%
8,COc1ccc(-n2c(C)nc3cc(C(=O)N4CCOCC4)ccc32)cc1,-14.1%
9,CC(C)(C)c1cc(N2CCOCC2)n2ncc(-c3ccc(Cl)cc3)c2n1,19.2%
10,O=C(CCc1c[nH]c2ccccc12)OCc1cccc([N+](=O)[O-])c1,13.1%
11,O=C(CCS(=O)(=O)c1ccc2c(c1)NC(=O)CS2)NCc1ccccc1Cl,-11.4%
12,O=C(CCCn1c(SCC(=O)Nc2ccccc2Cl)nc2ccccc2c1=O)NCC1CCCO1 (stereo not drawn),-48.9%
13,COc1ccc(C(C)=O)cc1COc1ccc(F)cc1,-0.00842%
14,O=C(N/N=C/c1ccoc1)c1ccc([N+](=O)[O-])cc1,7.19%
15,CC(C)(C)[C@@H]1CCC(=O)N(CC[C@H](N=[N+]=[N-])c2ccccc2)CC1,-21.6%
16,CC(C)CN(C(=O)c1ccc(F)cc1F)c1c(N)n(CC(C)C)c(=O)[nH]c1=O,8.07%
17,Cn1ccnc1SCC(=O)Nc1ccc2ccccc2c1,-12.1%
18,CCOc1ccc(NC(=O)CCSc2nc3c(c(CC)c2C#N)C(=O)CC(C)(C)C3)cc1,2.77%
19,O=C(O)/C(=C\c1cccs1)c1ccccc1,0.00478%
20,O=S(=O)(/C=C/c1ccccc1)N1CCN(c2nc(-c3ccccc3)nc3ccccc23)CC1,-9.29%
21,CCc1noc(C)c1C(=O)Nc1cc(Cl)ccc1-n1cncn1,-13%
22,N=C1/C(=C/c2ccc(OCc3ccccc3F)cc2)C(=O)N=C2SC(CC(=O)N3CCOCC3)=NN12,10.8%

row,Compound,"hERG current change (%, negative = inhibition) at 10uM"
1,COc1ccc(C2=NCCn3nc4ccccc4c32)cc1,-9.98%
2,CCCCOC(=O)c1ccc(NC(=O)COC(=O)C2CSC3(C)CCC(=O)N23)cc1 (stereo not drawn),-6.92%
3,COCCNC(=O)c1cc(-c2ccccc2)nn1CC1CC(c2cccnc2)=NO1 (stereo not drawn),2.9%
4,CCN(C(=O)C1CCCO1)c1ccccc1 (stereo not drawn),12.8%
5,C/C=C(\C)CN1CCC(Oc2cccc(C(=O)NCc3ccccn3)c2)CC1,-4.59%
6,COc1ccc(NS(=O)(=O)c2ccc3c(c2)NC(=O)C(C)S3)cc1 (stereo not drawn),6.53%
7,Cc1ccc(S(=O)(=O)N2CCC(C(=O)NNC(=O)c3cccnc3)CC2)cc1,2.37%
8,CS(=O)(=O)N1CCN(S(=O)(=O)c2ccccc2[N+](=O)[O-])CC1,22.3%
9,COc1ccccc1/C=C/C(=O)N1CCN(S(=O)(=O)c2cc(C)ccc2C)CC1,2.88%
10,S=c1[nH]nc(C2CCCCC2)n1/N=C/c1cccs1,11%
11,Cc1cc(F)ccc1Oc1cc(NN2CCCCC2)c([N+](=O)[O-])cc1[N+](=O)[O-],-1.11%
12,Cc1ccc(-n2ncc3c(=O)n(CC(=O)N(C)C)cnc32)cc1,5.94%
13,C=CCN1C(=O)/C(=C\c2ccco2)C(C(=O)OC)=C1C,-10.9%
14,CC(=O)Nc1ccc(C(=O)NNC(=O)CCc2ccccc2)cc1,19.6%
15,Cc1ccnc(N2C(=O)c3ccccc3C2O)c1 (stereo not drawn),-3.51%
16,CCCN1C(=O)c2ccccc2NC1c1cc(OC)c(OC)c(OC)c1 (stereo not drawn),-3.01%
17,O=C(O)c1ccc(C(=O)Nc2cccc(NC(=O)C3CCCO3)c2)cc1 (stereo not drawn),-21.3%
18,Cc1cc(C)c(C)c(S(=O)(=O)N2CCC(C(=O)Nc3ccncc3)CC2)c1C,-34.2%
19,CCOC(=O)[C@H]1[C@H]2COc3ccc(OC)cc3[C@@H]2N2C(=O)[C@H](C)NC(=O)[C@@]12C,15.3%
20,COc1ccc(-c2oc3c(CC=C(C)C)c(O[C@@H]4O[C@H](CO)[C@@H](O)[C@H](O)[C@H]4O)cc(O)c3c(=O)c2O[C@@H]2O[C@@H](C)[C@H](O)[C@@H](O)[C@H]2O)cc1,-0.85%
21,CCN(CC)CCNC(=O)c1cc2c(=O)n(C)c3ccccc3c2s1,-0.204%
22,O=C1c2ccccc2C(=O)N1Cc1ccco1,-3.32%

row,Compound,"hERG current change (%, negative = inhibition) at 10uM"
1,COc1ccc2oc(C(=O)NCc3ccccc3CN3CCCC3)c(C)c2c1,-66.1%
2,COc1ccc(CN2C(=O)NC(=O)/C(=C\c3cccc(OC)c3OC)C2=O)cc1,10.9%
3,C=CCNc1nc(C2(C)CC3(CC(C)OC3=O)C(=O)O2)cs1 (stereo not drawn),-4.86%
4,Cc1cc(C)cc(NC(=O)C2CCCN2C(=O)NC2CCCCC2)c1 (stereo not drawn),15.2%
5,CCOc1ccc(S(=O)(=O)N2CCCC(C(=O)N3CCC(C(N)=O)CC3)C2)cc1Cl (stereo not drawn),4.76%
6,CC(=O)Nc1ccc(S(=O)(=O)N2CCC(C(=O)N[C@@H](Cc3ccccc3)C(=O)O)CC2)cc1,11.1%
7,OCCNCCCCOc1ccc(F)cc1,4.18%
8,COc1ccc(C2=NNC(c3cccnc3)=Nc3ccc(OC)cc32)cc1,-21.4%
9,O=C(c1ccco1)N1CCN(C(=O)c2cccc3c2C(=O)N(Cc2cccnc2)C3)CC1,24.3%
10,CC(=O)NC1=NN(C(C)=O)C2(S1)C(=O)N(C(C)=O)c1ccc(C)cc12 (stereo not drawn),18.3%
11,Cc1ccc(Nc2nc(N)nc(CN3CCN(c4ccccc4F)CC3)n2)cc1,-67.4%
12,COc1ccc(/C=C2\SC(N)=NC2=O)cc1Br,10.1%
13,CCOC(=O)c1ccc(NC(=O)c2c(N)n(C)c(=O)n(C)c2=O)cc1,-6.23%
14,Cc1ccc(N=C2NC(=O)/C(=C/C=C/c3ccco3)S2)cc1C,13.2%
15,C=CCc1c(C)nc2c(C(=O)O)cnn2c1C,8.78%
16,Cn1cccc1-c1cc(C(=O)N/N=C/C=C/c2ccccc2)[nH]n1,-43.2%
17,CCN(C(=S)NC(=O)CCc1ccccc1)c1ccccc1,-3.24%
18,Cc1cccc(Cn2c(N3CCN(C)CC3)nc3c2c(=O)n(C)c(=O)n3C)c1,-49%
19,CCOC(=O)c1ccc(Nc2cc(C)nc3ncnn23)cc1,-15.1%
20,CCCc1nnc(NS(=O)(=O)c2ccc(OC)cc2)s1,21.3%
21,O=C(Cc1ccc(Br)cc1)N/N=C/c1ccc(-c2cccc(C(=O)O)c2)o1,3.87%
